# Out of some 310,000 compounds screened, about 2,200 (0.71%) showed an effect of 50% or more. Effects have a minus sign here. The list shows a part of the results.
# Molecular target: human ether-à-go-go-related gene (hERG) potassium channel (human, UniProt Q12809)
# Experiment: primary screen, population patch clamp on CHO cells stably expressing hERG
# human ether-à-go-go-related gene (hERG) potassium channel, sequence (Q12809 whole entry, looked up): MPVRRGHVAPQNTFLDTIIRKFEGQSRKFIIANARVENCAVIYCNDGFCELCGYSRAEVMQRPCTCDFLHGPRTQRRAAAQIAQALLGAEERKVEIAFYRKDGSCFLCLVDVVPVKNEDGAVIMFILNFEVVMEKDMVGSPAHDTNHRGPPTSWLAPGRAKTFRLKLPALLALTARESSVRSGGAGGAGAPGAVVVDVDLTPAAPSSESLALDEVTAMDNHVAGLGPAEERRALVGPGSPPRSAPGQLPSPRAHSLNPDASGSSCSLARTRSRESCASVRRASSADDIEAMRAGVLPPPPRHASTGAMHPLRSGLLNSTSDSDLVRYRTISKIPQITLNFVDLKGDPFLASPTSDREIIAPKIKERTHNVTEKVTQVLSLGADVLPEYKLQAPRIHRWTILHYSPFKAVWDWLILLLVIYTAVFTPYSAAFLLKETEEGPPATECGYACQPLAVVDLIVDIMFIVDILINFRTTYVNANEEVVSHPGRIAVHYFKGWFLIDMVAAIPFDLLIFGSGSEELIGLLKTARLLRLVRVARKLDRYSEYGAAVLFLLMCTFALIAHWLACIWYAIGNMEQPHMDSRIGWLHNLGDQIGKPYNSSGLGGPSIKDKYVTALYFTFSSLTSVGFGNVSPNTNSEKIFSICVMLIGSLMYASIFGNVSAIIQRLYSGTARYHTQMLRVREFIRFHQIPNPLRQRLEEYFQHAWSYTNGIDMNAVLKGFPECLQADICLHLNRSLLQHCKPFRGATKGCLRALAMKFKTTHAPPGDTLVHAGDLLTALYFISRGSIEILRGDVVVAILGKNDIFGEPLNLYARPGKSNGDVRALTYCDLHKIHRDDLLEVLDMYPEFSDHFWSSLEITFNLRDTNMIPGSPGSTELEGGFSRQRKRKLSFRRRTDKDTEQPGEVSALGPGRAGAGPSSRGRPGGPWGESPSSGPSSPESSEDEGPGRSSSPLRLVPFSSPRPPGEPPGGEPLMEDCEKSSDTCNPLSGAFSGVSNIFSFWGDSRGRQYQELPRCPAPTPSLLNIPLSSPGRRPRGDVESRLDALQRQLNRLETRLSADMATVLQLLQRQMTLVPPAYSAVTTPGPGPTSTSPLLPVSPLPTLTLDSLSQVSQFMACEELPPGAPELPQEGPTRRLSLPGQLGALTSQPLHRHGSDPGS
row,Compound,"hERG current change (%, negative = inhibition) at 1uM [%]"
1,COc1ccc(N2C(=O)CC(Cc3ccc(Br)cc3)C2=O)cc1 (stereo not shown),5.64
2,CCNC(=S)N/N=C(\C)c1ccc2c(c1)OCCO2,7.97
3,COc1ccc(C(=O)NCc2nnc(SCC(=O)NC3CCCC3)o2)cc1,21.4
4,CN(C)S(=O)(=O)c1ccc(S(=O)(=O)Nc2ccc3c(c2)oc2ccccc23)cc1,8.27
5,CC1(C)CC(N=Cc2c(O)n(Cc3ccc4c(c3)OCO4)c(=O)c3ccccc23)CC(C)(C)N1,9.73
6,COc1ccccc1OCCNC(=O)c1cc([N+](=O)[O-])cc([N+](=O)[O-])c1,12.1
7,CC(C)(C)Nc1nc(-c2ccccn2)nc2ccccc12,4.44
8,CCn1c(SCC(=O)NCC2CCCO2)nnc1-c1c[nH]c2ccccc12 (stereo not shown),10.2
9,COc1ccc(S(=O)(=O)CCC(=O)NCCc2ccc(S(N)(=O)=O)cc2)cc1,13.1
10,Cc1ccc2nc(CSc3nc(C)ccc3C#N)[nH]c2c1,12.2
11,Cc1ccc2nc(NC(=O)CCCc3nc4ccccc4s3)sc2c1,-2.55
12,CCOC(=O)c1ccc2[nH]c3c(c2c1)CCCC3O (stereo not shown),15.9
13,CCOC(=O)C1CCCN(S(=O)(=O)CCNC(=O)c2ccc3c(c2)OCO3)C1 (stereo not shown),16.4
14,Cc1ccc(/C=N/n2nnnc2N)cc1,2.68
15,COc1ccc(Cl)cc1NC(=O)NCC1CCN(C(=O)OC(C)(C)C)CC1,9.08
16,Cc1cccc(N2C(=O)SC(N(CC(=O)O)c3cccc(C)c3)C2=O)c1 (stereo not shown),21.3
17,Cc1ccc(N(CC(O)COCc2ccco2)S(=O)(=O)c2ccc(C)cc2)cc1 (stereo not shown),11.4
18,COc1ccccc1CNC(=O)C(=O)NCCC1CCCCN1S(=O)(=O)c1ccc(C)cc1 (stereo not shown),8.68
19,COc1ccc(NC(=S)N2CCN(C(=O)c3ccco3)CC2)cc1,1.47
20,CCN(CC)S(=O)(=O)c1ccc(OC)c(NC(=O)c2ccc(-n3cncn3)c([N+](=O)[O-])c2)c1,19.6
21,CCCc1cc(=O)[nH]c(SCC(=O)NCC2COc3ccccc3O2)n1 (stereo not shown),-4.72
22,COc1ccc(/C=N/NC(=O)c2cc(C)oc2C)cc1OC,9.42

row,Compound,"hERG current change (%, negative = inhibition) at 1uM [%]"
1,CN1CCN(NC(=O)Nc2ccc(Br)cc2Cl)CC1,0.741
2,CC(=O)N1CCC(C(=O)NCCOc2ccc(C)cc2)CC1,10.6
3,CCC(C(=O)NC1CCCCC1)n1c(SCc2ccccc2F)nc2ccncc21 (stereo not shown),3.08
4,O=C(Nc1ccccc1)c1nn(-c2cccc(C(F)(F)F)c2)ccc1=O,5.94
5,CC(C)C(NC(=O)OCc1ccccc1)C(=O)N1CCOCCOCCOCC1 (stereo not shown),17.2
6,Cc1ccc(CNC(=O)CO/N=C/c2ccc3c(c2)OCO3)cc1,6.67
7,Cc1ccc(C)c(Nc2nn3c(=O)c4ccc(C(=O)NCc5cccnc5)cc4nc3s2)c1,9.24
8,COc1cccc(OCCn2cccc2/C=C2/C(=N)N3OC(C)=CC3=NC2=O)c1,12.3
9,O=C(c1cccs1)N1N=C(c2ccccc2)CC1c1ccccc1O (stereo not shown),17.2
10,Br.Clc1ccc(-c2cn3cc(Br)ccc3n2)cc1Cl,-1.52
11,CCOCCN1CCC(OC(C)=O)C(C)C1.Cl (stereo not shown),15.1
12,Cc1ccc2nc(SCC(=O)Nc3ccc(Cl)cc3)nc(=O)n2c1,3.35
13,CSc1ccc(C2CC(=O)Nc3c2c(=O)n(C)c(=O)n3C)cc1 (stereo not shown),11.3
14,CC(=O)Nc1ccc(S(=O)(=O)NNC(=O)COc2ccc(Cl)cc2Cl)cc1,14.5
15,O=C(COC(=O)c1ccc(O)cc1)NC1CCCCCC1,7.64
16,CCOC(=O)c1sc(N)nc1-c1ccccc1,3.34
17,O=S(=O)(Nc1cccc2c1ccc1cccn12)c1cccs1,-10.3
18,O=C(O)CCN1C(=O)/C(=C\c2cccc(Oc3ccccc3)c2)SC1=S,13
19,O=C1NC2(CCCCCC2)C(=O)N1Cc1ccc([N+](=O)[O-])cc1,9.44
20,Cc1c(C(=O)N2CCN(S(C)(=O)=O)CC2)oc2ccccc12,9.58
21,COc1ccc(/C=N/NC(=O)COc2ccc3ccccc3c2)c(C(=O)O)c1OC,11.2
22,COc1ccc(-n2c(NC(=O)c3ccco3)c(C#N)c3nc4ccccc4nc32)cc1,18

row,Compound,"hERG current change (%, negative = inhibition) at 1uM [%]"
1,CC(C)(C)NC(=O)CN(C(=O)CCC(=O)Nc1nccs1)c1ccc2c(c1)OCCO2,9.55
2,CCNC(=O)c1ccccc1CCc1ccccc1,4.92
3,Cc1ccc(/C=N/NC(=O)CN(Cc2ccccc2)S(=O)(=O)c2ccc3c(c2)OCCO3)cc1,15.4
4,O=C(NCCCN1CCCC1=O)c1cc2c(s1)CCCCC2,7.34
5,Cc1ccc(S(=O)(=O)n2nc(OC(=O)C(C)(C)C)cc2N)cc1,8.94
6,NS(=O)(=O)c1cccc(NC(=O)COc2ncnc3c2cnn3-c2ccccc2)c1,5.93
7,CCCCC(NC(C)=O)c1nc2ccccc2n1CCC (stereo not shown),-2.31
8,c1ccc(N/N=C(\Cc2ncc[nH]2)c2ccccc2)cc1,7.52
9,CC(=O)c1ccc(NC(=O)c2ccc3c(c2)C(=O)N(c2ccccn2)C3=O)cc1,14.7
10,CC1CCC(NC(=O)COC(=O)CNC(=O)c2ccc3ccccc3c2)CC1 (stereo not shown),9.36
11,C=CCNCC#CCOc1ccc(OC)cc1.O=C(O)C(=O)O,-0.956
12,COc1ccc(N2CC(C)Cn3c2nc2c3c(=O)n(CCN3CCOCC3)c(=O)n2C)cc1 (stereo not shown),2.17
13,Cc1ccc(S(=O)(=O)N2CCN(C(=O)Cc3sc(C)nc3-c3ccc(F)cc3)CC2)c(C)c1,6.34
14,CCOc1cccc(CNn2cnnc2)c1OCc1ccccc1Cl,3.2
15,COc1ccc(NC(=O)CC2C(=O)N(c3ccc(F)cc3)C(=S)N2NC(=O)c2ccc(Cl)cc2)cc1 (stereo not shown),3.09
16,COc1ccc(C(C)NC(=O)C2CCCC2)cc1OC (stereo not shown),13.4
17,COCCn1c(SCC(=O)c2ccc(F)cc2)nnc1C(C)C,8.05
18,O=C(Cn1c(=O)sc2ccccc21)Nc1ccc2c(c1)OCCO2,15
19,CC(=O)c1cccc(NC(=O)CSc2n[nH]c(-c3ccncc3)n2)c1,15
20,CC1CCCC/C1=N\Nc1ccc(S(N)(=O)=O)cc1[N+](=O)[O-] (stereo not shown),15
21,CSc1ccc(C(=S)N2CCCCCC2)cc1,12.2
22,Nc1ccc(S(=O)(=O)Nc2ccc(S(N)(=O)=O)cc2)cc1,10.8

row,Compound,"hERG current change (%, negative = inhibition) at 1uM [%]"
1,Nc1nc(SCc2nc3sc4c(c3c(=O)[nH]2)CCCC4)n[nH]1,7.65
2,O=c1c2ccc([N+](=O)[O-])c3cccc(c32)c2nc3ccccc3n12,11.9
3,CC(=NCCCN1CCCCC1)c1c(O)n(Cc2ccccc2)c(=O)[nH]c1=O,-25.8
4,Cc1cccc(CS(=O)(=O)Cc2ccc(C(=O)NCc3ccco3)o2)c1,3.38
5,O=C(Cn1cc(C(F)(F)F)ccc1=O)N/N=C/c1ccccc1O,1.57
6,Cc1cc(C(=O)N/N=C/c2ccc(N3CCOCC3)cc2)c(C)o1,11.3
7,CCCCn1c(=O)c(C(=O)Nc2ccccc2F)c(O)c2ccccc21,13.8
8,CCOc1ccc(S(=O)(=O)NCCC(=O)N2CCN(Cc3ccccc3)CC2)cc1,-28.6
9,COc1cccc(C(=O)OCc2ccccc2C#N)c1O,16.7
10,COCCN(C(=O)CCC(=O)Nc1cc(C)on1)C(C(=O)NC1CCCC1)c1ccc(C)cc1 (stereo not shown),6.94
11,N#Cc1ccccc1OCC(=O)Nc1nnc(C2CC2)s1,3.71
12,O=C1OC(c2ccccc2)=C/C1=C/N1CCCCC1,5.76
13,CCC(C)NC(=O)CSc1nnc(-c2cc(-c3ccc(C)cc3)nc3ccccc23)n1N (stereo not shown),12.4
14,O=C(Nc1cccc(C(F)(F)F)c1)C1C2CC3OC(=O)C1C3C2 (stereo not shown),0.0006
15,CCN1CCN(CCn2c(=S)[nH]c3cc4c(cc3c2=O)OCO4)CC1,8.76
16,Cc1cccc(C(=O)OCC(=O)c2c(C)[nH]c3ccccc23)c1O,13.6
17,C=CCn1c(SCc2ccc(F)cc2)nc2c1c(=O)[nH]c(=O)n2C,10.9
18,O=C(CSc1ccc2nnc(CCNC(=O)c3ccc(F)cc3)n2n1)NCC1CCCO1 (stereo not shown),8.61
19,CCOC(=O)C[C@H]1c2cc(C(F)(F)F)ccc2S(=O)(=O)N1C(C)C,7.53
20,COc1ccc(S(=O)(=O)Nc2c(NC3CCCCC3)c3ccccc3oc2=O)cc1OC,12.4
21,O=C1NC(c2ccccc2O)Nc2ccccc21 (stereo not shown),14.6
22,Cc1ccc(S(=O)(=O)N2CCOCC2)cc1NC(=O)COC(=O)CNC(=O)c1ccc(Cl)cc1Cl,11.8
